Data on nine variants can be found in the supplement of paper PMC12217912.

The list shows a part of the results. Sequences were assembled here from the parent chain. Inactive controls read about 0.05.

First the molecules themselves.
B1: TEV protease; numbered along this chain (parent)
chain: MGESLFKGPRDYNPISSSICHLTNESDGHTTSLYGIGFGPFIITNKHLFRRNNGTLVVQSLHGVFKVKDTTTLQQHLVDGRDMIIIRMPKDFPPFPQKLKFREPQREERICLVTTNFQTKSMSSMVSDTSCTFPSGDGIFWKHWIQTKDGQCGSPLVSTRDGFIVGIHSASNFTNTNNYFTSVPKNFMELLTNQEAQQWVSGWRLNADSVLWGGHKVFMVKPEEPFQPVKEATQL

Variants of B1 are the subject of this test. Kind of test: raw area under fraction-flipped curve 0-4 h after induction (AUC4h, not background-subtracted), DNA-recorder readout of cleavage of the substrate (dimensionless); higher = more cleavage of the substrate by the protease variant. Particulars: temperature: 34 °C; time window: 0-4 h after rhamnose induction. How it is done:
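In vivo DNA recorder in E. coli TOP10(DE3) ΔrhaA at 34 °C. Each TEVp single-site mutant (parent TEVp 0) is paired with a single-site variant of the 7-mer TEVs (canonical ENLYFQ|S). The substrate sits between flexible linkers in a Bxb1-sfGFP-TEVs-SsrA fusion, so cleavage stabilises Bxb1 and speeds flipping of a recombination array, read by NGS. The value is the raw area under the fraction-flipped curve over 0-4 h after rhamnose induction (AUC4h), with ≥20 reads per time point. It is not background-subtracted; inactive controls average about 0.047.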
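Note: Bxb1 expression induced with 0.2% (w/v) L-rhamnose at OD600 near 0.5, cultures sampled hourly, flipped fraction per protease–substrate barcode pair counted by paired-end Illumina sequencing.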

Turning to MGESLFKGPRDYNPISSSICHLTNESDGHTTSLYGIGFGPFIITNKHLFRRNNGTLVVQSLHGVFKVKDTTTLQQHLVDGRDMIIIRMPKDFPPFPQKLKFREPQREERICLVTTNFQTKSMSSMVSDTSCTFPSGDGIFWKHWIQTKDGQCGSPLVSTRDGFISGIHSASNFTNTNNYFTSVPKNFMELLTNQEAQQWVSGWRLNADSVLWGGHKVFMVKPEEPFQPVKEATQL [V165S], the “area with substrate ENLYFQA” value is 0.0447, the “area with substrate ENLYFQF” value worked out at 0.0575, the “area with substrate ENLYFQI” value turned out to be 0.069 and the “area with substrate ENLYFQK” value is 0.0571. Also, the “area with substrate ENLYFQN” value was 0.0538, the “area with substrate ENLYFQQ” value came out at 0.0476, the “area with substrate ENLYFQR” value is 0.051 and the “area with substrate ENLYFQS” value is 0.0538. In addition, the “area with substrate ENLYFQT” value came out at 0.0522, the “area with substrate ENLYFQV” value amounted to 0.0446 and the “area with substrate ENLYFQW” value came out at 0.0478.

In the case of MGESLFKGPRDYNPISSSICHLTNESDGHTTSLYGIGFGPFIITNKHLFRRNNGTLVVQSLHGVFKVKDTTTLQQHLVDGRDMIIIRMPKDFPPFPQKLKFREPQREERICLVTTNFQTKSMSSMVSDTSCTFPSGDGIFWKHWIQTKDGQCGSPLVSLRDGFIVGIHSASNFTNTNNYFTSVPKNFMELLTNQEAQQWVSGWRLNADSVLWGGHKVFMVKPEEPFQPVKEATQL [T159L], the “area with substrate ENLYFQA” value was 0.0965, the “area with substrate ENLYFQC” value worked out at 0.121, the “area with substrate ENLYFQG” value turned out to be 0.108 and the “area with substrate ENLYFQH” value was 0.08. Besides, the “area with substrate ENLYFQI” value was 0.0549, the “area with substrate ENLYFQK” value amounted to 0.0732, the “area with substrate ENLYFQL” value was determined as 0.0484 and the “area with substrate ENLYFQM” value stood at 0.093. Moreover, the “area with substrate ENLYFQN” value is 0.0426, the “area with substrate ENLYFQQ” value is 0.0786, the “area with substrate ENLYFQR” value came to 0.0656 and the “area with substrate ENLYFQS” value was determined as 0.0998. Further, the “area with substrate ENLYFQV” value stood at 0.0641, the “area with substrate ENLYFQW” value was 0.0645 and the “area with substrate ENLYFQY” value came to 0.0796.

For MGESLFKGPRDYNPISSSICHLTNESDGHTTSLYGIGFGPFIITNKHLFRRNNGTLVVQSLHGVFKVLDTTTLQQHLVDGRDMIIIRMPKDFPPFPQKLKFREPQREERICLVTTNFQTKSMSSMVSDTSCTFPSGDGIFWKHWIQTKDGQCGSPLVSTRDGFIVGIHSASNFTNTNNYFTSVPKNFMELLTNQEAQQWVSGWRLNADSVLWGGHKVFMVKPEEPFQPVKEATQL [K68L], the “area with substrate ENLYFQA” value was 0.102, the “area with substrate ENLYFQC” value stood at 0.111, the “area with substrate ENLYFQE” value is 0.0565 and the “area with substrate ENLYFQF” value was found to be 0.0657. The “area with substrate ENLYFQG” value is 0.0879, the “area with substrate ENLYFQH” value was 0.0637, the “area with substrate ENLYFQI” value stood at 0.0535 and the “area with substrate ENLYFQK” value turned out to be 0.0596. Moreover, the “area with substrate ENLYFQL” value amounted to 0.0507, the “area with substrate ENLYFQN” value amounted to 0.0748, the “area with substrate ENLYFQP” value turned out to be 0.0479 and the “area with substrate ENLYFQQ” value amounted to 0.0745. Further, the “area with substrate ENLYFQR” value was 0.0602, the “area with substrate ENLYFQS” value stood at 0.0968, the “area with substrate ENLYFQV” value was 0.0656 and the “area with substrate ENLYFQW” value came to 0.0534. Moreover, the “area with substrate ENLYFQY” value is 0.0742.

On to MGESLFKGPRDYNPISESICHLTNESDGHTTSLYGIGFGPFIITNKHLFRRNNGTLVVQSLHGVFKVKDTTTLQQHLVDGRDMIIIRMPKDFPPFPQKLKFREPQREERICLVTTNFQTKSMSSMVSDTSCTFPSGDGIFWKHWIQTKDGQCGSPLVSTRDGFIVGIHSASNFTNTNNYFTSVPKNFMELLTNQEAQQWVSGWRLNADSVLWGGHKVFMVKPEEPFQPVKEATQL [S17E], for which the “area with substrate ENLYFQA” value is 0.0948, the “area with substrate ENLYFQC” value is 0.115, the “area with substrate ENLYFQE” value was 0.0578 and the “area with substrate ENLYFQF” value was 0.0701. In addition, the “area with substrate ENLYFQG” value was 0.101, the “area with substrate ENLYFQH” value amounted to 0.0791, the “area with substrate ENLYFQI” value amounted to 0.058 and the “area with substrate ENLYFQK” value came to 0.0632. For the same variant, the “area with substrate ENLYFQL” value turned out to be 0.0131, the “area with substrate ENLYFQM” value is 0.103, the “area with substrate ENLYFQN” value turned out to be 0.0787 and the “area with substrate ENLYFQP” value came to 0.0712. For the same variant, the “area with substrate ENLYFQQ” value was found to be 0.0564, the “area with substrate ENLYFQR” value was 0.0616, the “area with substrate ENLYFQS” value came out at 0.106 and the “area with substrate ENLYFQT” value was determined as 0.0806. For the same variant, the “area with substrate ENLYFQW” value was 0.0765 and the “area with substrate ENLYFQY” value stood at 0.0558.

As to MGESLFKGPRDYNPISSSICHLTNESDGHTTSLYGIGFGPFIITNKHLFRRNNGTLVVQSLHGVFKVKDTTTLQQHLVDGRDMIIIRMPKDFPPFPQKLKFREPQREERICLVTTNFQTKSMSSMVSDTSCTFPSGDGIFWKHWIQTKDGQCGSCLVSTRDGFIVGIHSASNFTNTNNYFTSVPKNFMELLTNQEAQQWVSGWRLNADSVLWGGHKVFMVKPEEPFQPVKEATQL [P155C], the “area with substrate ENLYFQA” value came to 0.0982, the “area with substrate ENLYFQF” value was 0.0795, the “area with substrate ENLYFQG” value was 0.0873 and the “area with substrate ENLYFQH” value worked out at 0.0762. For the same variant, the “area with substrate ENLYFQI” value was 0.0269, the “area with substrate ENLYFQK” value worked out at 0.0619, the “area with substrate ENLYFQL” value is 0.0525 and the “area with substrate ENLYFQR” value is 0.0585. For the same variant, the “area with substrate ENLYFQS” value worked out at 0.0847 and the “area with substrate ENLYFQT” value was determined as 0.0583.

With MGESLFKGPRDYNPISSSICHLTNESDGHTTSLYGIGFGPFIITNKHLFRRNNGTLVVQSLHGVFKVKDTTTLQQHLVDGRDMIIIRMPKDFPPFPQKLKFREPQREERICLVTTNFQTKSMSSMVSDTSCTFPSGDGIFWKHWIQTKDGQCGSPLVSTRDGFIVGIHSASNFTNTNNYFTSVPKNFMELLTNEEAQQWVSGWRLNADSVLWGGHKVFMVKPEEPFQPVKEATQL [Q194E], the “area with substrate ENLYFQA” value turned out to be 0.0717, the “area with substrate ENLYFQF” value was 0.0886, the “area with substrate ENLYFQH” value amounted to 0.101 and the “area with substrate ENLYFQI” value amounted to 0.0589. Besides, the “area with substrate ENLYFQK” value was 0.0615, the “area with substrate ENLYFQM” value is 0.0993, the “area with substrate ENLYFQN” value is 0.0883 and the “area with substrate ENLYFQR” value was 0.0689. The “area with substrate ENLYFQS” value was 0.119 and the “area with substrate ENLYFQV” value came out at 0.0609.

Regarding MGESLFKGPRDYNPISSSICHLTNETDGHTTSLYGIGFGPFIITNKHLFRRNNGTLVVQSLHGVFKVKDTTTLQQHLVDGRDMIIIRMPKDFPPFPQKLKFREPQREERICLVTTNFQTKSMSSMVSDTSCTFPSGDGIFWKHWIQTKDGQCGSPLVSTRDGFIVGIHSASNFTNTNNYFTSVPKNFMELLTNQEAQQWVSGWRLNADSVLWGGHKVFMVKPEEPFQPVKEATQL [S26T], the “area with substrate ENLYFQA” value stood at 0.137, the “area with substrate ENLYFQC” value came to 0.0951, the “area with substrate ENLYFQG” value stood at 0.0785 and the “area with substrate ENLYFQH” value stood at 0.0863. The “area with substrate ENLYFQI” value was 0.0627, the “area with substrate ENLYFQK” value worked out at 0.0063, the “area with substrate ENLYFQL” value was 0.0638 and the “area with substrate ENLYFQN” value is 0.0532. Also, the “area with substrate ENLYFQR” value amounted to 0.0643, the “area with substrate ENLYFQS” value stood at 0.0916, the “area with substrate ENLYFQT” value came to 0.0676 and the “area with substrate ENLYFQW” value is 0.0612.

For MGESLFKGPRDYNPISSSICHLTNESDGHTTSLYGIGFGPFIITNKHLFRRNNGTLVVQSLHGVFKVKDTTTLQQHLVDGRDMIIIRMPKDFPPFPQKLKFREPQREERICLVTTNFQTKSMSSMVSDTSCTFPSGDGIFWKHWIQTKDGCCGSPLVSTRDGFIVGIHSASNFTNTNNYFTSVPKNFMELLTNQEAQQWVSGWRLNADSVLWGGHKVFMVKPEEPFQPVKEATQL [Q151C], the “area with substrate ENLYFQA” value was found to be 0.096, the “area with substrate ENLYFQC” value turned out to be 0.0977, the “area with substrate ENLYFQD” value worked out at 0.0682 and the “area with substrate ENLYFQE” value worked out at 0.0486. The “area with substrate ENLYFQG” value was 0.105, the “area with substrate ENLYFQH” value was 0.0701, the “area with substrate ENLYFQI” value was determined as 0.0552 and the “area with substrate ENLYFQK” value is 0.0575. In addition, the “area with substrate ENLYFQL” value came to 0.0576, the “area with substrate ENLYFQM” value came to 0.0718, the “area with substrate ENLYFQN” value stood at 0.0891 and the “area with substrate ENLYFQP” value is 0.0526. The “area with substrate ENLYFQR” value worked out at 0.0467, the “area with substrate ENLYFQS” value worked out at 0.0924, the “area with substrate ENLYFQT” value was determined as 0.0717 and the “area with substrate ENLYFQY” value amounted to 0.0527.

On to MGESLFKGPRDYNPISSSICHLTNESDGHTTSLYGIGFGPFIITNKHLFRRNNGTLVVQSLHGVFKVKDTTTLQQHLVDGRDMIIIRMPKDFPPFPQKLKFREPQREERICLVTTNFQTKSMSSMVSDTSCTFPSGDGIFWKHWIQTKDGQCGSPLVSTRDGFIVGIHSASNFTNTNNYFTSVPKNFMELLTNQEAQQWVSGWRLNADSVLWMGHKVFMVKPEEPFQPVKEATQL [G213M], for which the “area with substrate ENLYFQA” value came to 0.056, the “area with substrate ENLYFQC” value is 0.0509, the “area with substrate ENLYFQD” value came to 0.0588 and the “area with substrate ENLYFQG” value amounted to 0.0621. In addition, the “area with substrate ENLYFQH” value worked out at 0.0542, the “area with substrate ENLYFQI” value was determined as 0.0515, the “area with substrate ENLYFQK” value was 0.0531 and the “area with substrate ENLYFQL” value was 0.0634. The “area with substrate ENLYFQM” value is 0.0573, the “area with substrate ENLYFQN” value was 0.112, the “area with substrate ENLYFQP” value came to 0.0539 and the “area with substrate ENLYFQQ” value stood at 0.0528. Moreover, the “area with substrate ENLYFQR” value came out at 0.0574, the “area with substrate ENLYFQS” value was 0.06, the “area with substrate ENLYFQT” value stood at 0.0627 and the “area with substrate ENLYFQY” value is 0.053.
